Hit rate of the full screen: of about 55,000 compounds, about 530 (0.96%) were called active. The inconclusive results got no clear call from the source; some entries with a clear call stand among them for comparison. Calls follow the shape of the dose curve; as a rule, active = well fitted cell-killing curve with a large enough effect; inconclusive = small, poorly fitted or top-dose-only effect; inactive = no such curve, though single readings can be large or run the other way. Potencies beside an inconclusive call are fits to weak or partial responses and may not hold up.
experiment: qHTS Screen for Compounds that Selectively Target Cancer Cells with p53 Mutations: Cytotoxicity of p53 Null Cells at the Nonpermissive Temperature; settings: H1299 p53-null (neo) cells, 39C, ATPlite viability, 24 h; activity, negative = cell killing: at 46.1 µM (top of the series); also: nearly all actives have a fitted effect of over 50% in size;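 as to activity, negative = cell killing: 0% = DMSO only and -100% = full killing by 100 µM tamoxifen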
Outline: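 Cells seeded at 600/well, 37C overnight. Compound added (up to 46 uM), plates shifted to 39C for 24 hr. ATPlite added, luminescence read after 20 min at room temperature.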
Potency is read from the fitted curve at half-maximal effect; tags tell the direction and shape of the fitted curve.

Structure (SMILES) | Potency | activity, negative = cell killing
CN(C)CCNC(=O)CCCn1c(=O)c2cccn2c2ccccc21 | inconclusive: 5.62 µM [cytotoxic, single point] | 
CN(C)CCN(Cc1ccccc1)S(=O)(=O)c1ccc(-c2cc(C(F)(F)F)on2)s1 | inconclusive: 14.1 µM [cytotoxic, single point] | 
Brc1ccc(-c2noc(-c3ccccc3)n2)o1 | inconclusive: 15.8 µM [cytotoxic, single point] | 
CC(=O)c1cccc2c(O)c(C3=Nc4ccccc4C3=O)[nH]c12 | inactive | 
Fc1ccc(-c2cn3cc(Cc4ccccc4Cl)sc3n2)cc1 | active: 7.94 µM | 
Cc1cc(O)c(C(c2ccc(Cl)cc2)N2CCN(c3ccccc3)CC2)c(=O)n1Cc1ccco1 (stereo unspecified) | inconclusive: 0.0112 µM [cytotoxic, full curve] | 
COCCNC(=O)CCCN1C(=O)CCn2nc(-c3cccn3C)cc21 | inconclusive: 0.005 µM [cytotoxic, full curve, poor fit] | 
COc1cccc(-c2nc(SCC(=O)Nc3ccc4c(c3)OCCO4)c(-c3ccccc3)[nH]2)c1 | inconclusive: 35.5 µM [cytotoxic, single point] | 
Cc1n[nH]c(C)c1S(=O)(=O)N(CC(=O)Nc1ccc(C(F)(F)F)cc1)c1ccc(C(C)C)cc1 | inconclusive: 22.4 µM [cytotoxic, single point] | 
Cc1ccccc1Nc1c(-c2ccco2)nc2c(C)cccn12 | inconclusive: 0.398 µM [cytotoxic, partial curve] | 
Cc1ccc(NC(=O)Cn2c(=O)n(Cc3ccco3)c(=O)c3sc4ccccc4c32)cc1C | inconclusive: 12.6 µM [cytotoxic, single point] | 
CCCCN1C(=O)C(O)(c2c[nH]c3ccccc23)c2cc(Br)ccc21 (stereo unspecified) | inconclusive: 31.6 µM [cytotoxic, single point] | 
Cc1coc2c(C)c3oc(=O)c(CCC(=O)NCCc4ccccc4)c(C)c3cc12 | inconclusive: 31.6 µM [cytotoxic, single point] | 
COc1ccc(-c2nc(CSc3nncn4c3cc3occc34)c(C)o2)cc1 | inconclusive: 25.1 µM [cytotoxic, partial curve, poor fit] | 
COc1ccc(C(=O)Nc2ccc3nc(N4CCC(C)CC4)cc(C)c3c2)cc1 | inconclusive: 11.2 µM [cytotoxic, partial curve] | 
COc1ccc(CCNC(=O)CCCn2c(=O)c3ccccc3n(CC(=O)Nc3cc(Cl)ccc3C)c2=O)cc1OC | active: 12.6 µM | 
CCOc1ccc(NC(=O)c2nn(C)c3c2CS(=O)(=O)c2ccccc2-3)cc1 | inconclusive: 0.0251 µM [cytotoxic, full curve, poor fit] | 
Cc1ccc(S(=O)(=O)c2cc3cc(C(=O)O)ccc3oc2=O)cc1 | inconclusive: 0.398 µM [cytotoxic, single point] | 
CCn1cc(CCC(=O)NCc2ccccc2OC)c2ccccc21 | inconclusive: 3.16 µM [cytotoxic, partial curve, poor fit] | 
Cc1ccc(C)c(NC(=O)Cn2cc(C(=O)c3ccco3)c3ccccc32)c1 | inconclusive: 31.6 µM [cytotoxic, single point] | 
COc1ccc(C2=C(C)C(=NCCCN3CCN(c4cc(C)ccc4C)CC3)NS2(=O)=O)cc1 | inactive | 
COc1ccccc1-c1nc2c(c(SCC(=O)Nc3ccc(C)c(C)c3)n1)Cc1c(CO)cnc(C)c1O2 | inactive | 

Structure (SMILES) | Potency | activity, negative = cell killing
O=C1N(c2cccc(Cl)c2)C(c2ccc(Cl)cc2)N2CCCN12 (stereo unspecified) | inconclusive: 3.55 µM [cytotoxic, single point] | 
CCC(=O)N1c2ccccc2CC1C(=O)NCCc1ccc(OC)c(OC)c1 (stereo unspecified) | inactive | 
NC(=O)C1CCN(C(=O)c2ccc(NC(=O)c3nsc4ccccc34)cc2)CC1 | active: 2.82 µM | 
COc1cc(Cl)c(C)cc1NC(=O)C1CCN(c2nc3ccccc3n3cccc23)CC1 | active: 31.6 µM | 
COc1ccc(S(=O)(=O)Nc2cccc(-c3ccc(N4CCCC4)nn3)c2)c(OC)c1 | inconclusive: 0.316 µM [cytotoxic, full curve, poor fit] | 
C1CCN(Cc2nnnn2C2CCCC2)CC1 | inconclusive: 0.0056 µM [cytotoxic, full curve, poor fit] | 
COc1ccc(Cn2c(C(=O)O)c(CNCc3ccccc3F)c3ccc(OC)cc32)cc1 | inactive | 
CC(C)(C)n1ncc2c(=O)n(CC(=O)c3ccccc3)cnc21 | active: 12.6 µM | 
Nc1nnc(SCCCC(=O)c2ccc(Br)cc2)s1 | inconclusive: 2.82 µM [cytotoxic, partial curve, poor fit] | 
CC(=O)c1ccc(NC(=O)c2ccc3c(c2)N(Cc2cccc(Cl)c2)C(=O)c2ccccc2S3(=O)=O)cc1 | inactive | 
COC(=O)c1ccccc1NC(=O)CSc1nc(-c2ccccc2)cc(C(F)(F)F)n1 | inactive | 
CCOc1ccc(CCNC(=O)CS(=O)Cc2nc(-c3ccc(C)cc3)oc2C)cc1OCC (stereo unspecified) | inconclusive: 25.1 µM [cytotoxic, single point] | 
COc1ccc(CNc2ccc3cc(S(=O)(=O)N4CCCCC4)ccc3n2)cc1 | inconclusive: 0.0032 µM [cytotoxic, full curve, poor fit] | 
O=C(NCCCN1CCN(c2cccc(Cl)c2)CC1)Nc1ccccc1C(F)(F)F | inconclusive: 31.6 µM [cytotoxic, single point] | 
Cc1c(Cl)cccc1Nc1nn2c(=O)c3ccc(C(=O)NCCc4ccccc4)cc3nc2s1 | inconclusive: 15.8 µM [cytotoxic, single point] | 
O=C(/C=C/Nc1ccc(F)c(F)c1)c1cccs1 | inactive | 
COc1ccc(C(=O)/C=C/c2cn(CC(O)CN(CC(C)C)CC(C)C)c3ccccc23)cc1 (stereo unspecified) | inactive | 
CCOc1ccc(CCNCc2c(C(=O)O)n(Cc3ccc(C)cc3)c3cc(OC)ccc23)cc1 | inactive | 
COc1cc(OC)c(C(=O)Nc2ccccc2-c2ccccc2)cc1OC |  | inactive: 18.9% [at 1.84 µM]
Cc1ccc(Cc2nc3ccccc3nc2SCC(=O)NCc2ccc(F)cc2)cc1 | inconclusive: 31.6 µM [cytotoxic, partial curve] | 
Cc1ccc(-c2cc(C(=O)NCc3cnn(C)c3)c3cc(Br)ccc3n2)cc1 | inconclusive: 31.6 µM [cytotoxic, single point] | 
CCCCNc1nc(Oc2ccc(OCC(N)=O)nn2)nc(N2CCOCC2)n1 | inconclusive: 0.0079 µM [cytotoxic, full curve] | 

Structure (SMILES) | Potency | activity, negative = cell killing
CCOC(=O)c1ccc(NC(=O)C(CC)Sc2nc3ncccc3o2)cc1 (stereo unspecified) | inconclusive: 12.6 µM [cytotoxic, single point] | 
CC(C)(C)n1cnc2cc(NCc3ccccc3Cl)ccc21 | inconclusive: 35.5 µM [cytotoxic, single point] | 
CCOc1ccc2nc(N3CCCC(C(=O)NCCCOC)C3)sc2c1 (stereo unspecified) | inconclusive: 12.6 µM [cytotoxic, partial curve] | 
Cc1nc2nc(NCc3cccc(Cl)c3)[nH]n2c(=O)c1Cc1ccccc1 | inconclusive: 0.158 µM [cytotoxic, full curve, poor fit] | 
Cc1cccc(NC(=O)c2cc(-c3ccc4c(c3)OCCO4)on2)c1 | active: 1.26 µM | 
COc1cccc(C(=O)Nc2cccc(NC(=O)c3ccc(Cl)cc3Cl)c2)c1 | inconclusive: 0.112 µM [cytotoxic, full curve, poor fit] | 
CCc1ccc(CNCc2c(C(=O)O)c(C)n(Cc3c(F)cccc3Cl)c2C)cc1 | inactive | 
Cn1c(=O)n(C)c2cc(N3CCOCC3)c(NS(=O)(=O)c3ccc(C(C)(C)C)cc3)cc21 | inconclusive: 7.94 µM [cytotoxic, partial curve, poor fit] | 
Cc1cc(C)cc(NS(=O)(=O)c2ccc(-n3cccn3)cc2)c1 | inactive | 
COCCCNC(=O)c1oc2c(c1C)-c1nn(Cc3ccc(Cl)cc3)cc1CC2 | inactive | 
CC(=O)c1cccc(Nc2nc(-c3cccc(C)c3)nc3ccccc23)c1 | active: 11.2 µM | 
COc1cc(NC(=O)c2cc3c(s2)-c2ccccc2OC3)cc(OC)c1OC | inconclusive: 15.8 µM [cytotoxic, single point] | 
COc1ccccc1NC(=O)Cn1c(=O)n(CCC(=O)NCC2CCCO2)c(=O)c2cc(OC)c(OC)cc21 (stereo unspecified) | inactive | 
COc1ccccc1-c1cc2nc(C)c(CCC(=O)O)c(C)n2n1 | inconclusive: 10 µM [cytotoxic, single point] | 
Cc1ccc2nc(-c3ccc(O)cc3)c(Nc3ccc(Cl)cc3)n2c1 | inconclusive: 31.6 µM [cytotoxic, single point] | 
S=C(Nc1ccc(Cl)c(Cl)c1)NC1CCN(Cc2ccccc2)CC1 | inconclusive: 12.6 µM [cytotoxic, single point] | 
COc1cccc(N2CCN(c3ncnc4c3[nH]c3ccccc34)CC2C)c1 (stereo unspecified) | inconclusive: 12.6 µM [cytotoxic, single point] | 
CCS(=O)(=O)N1CCc2cc(C(=O)Nc3ccc(C(=O)OC)cc3)ccc21 | inconclusive: 15.8 µM [cytotoxic, partial curve, poor fit] | 
COc1cccc(C(=O)Nc2cccc(-c3cn4ccsc4n3)c2)c1OC | active: 12.6 µM | 
CCOC(=O)C1=C(C)NC(=O)NC1c1cn(-c2ccccc2)nc1-c1ccc(OC(C)C)cc1 (stereo unspecified) | inconclusive: 22.4 µM [cytotoxic, single point] | 
Cc1cc(OCCCn2c(CCNC(=O)C3CCCCC3)nc3ccccc32)ccc1Cl | active: 25.1 µM | 
COc1ccc2c(Sc3ccc(C)cc3)c(C(=O)NCCc3ccccc3)[nH]c2c1 | inactive | 

Source: PubChem BioAssay AID904 (National Center for Advancing Translational Sciences (NCATS), 2007)
